# Measured values published in the supplement of paper PMC8728848.
# This is one part of the list.
# Tests used:
# Experiment in all cases: glycan array binding signal (z-score within array); higher = stronger binding
# Conditions in all cases: glycan notation: IUPAC condensed, linker removed
# Kdn(a2-3)Gal(b1-4)Glc = target: Kdn(a2-3)Gal(b1-4)Glc
# How it was run: (§1)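 Columns mapping to the same glycan were averaged after glycan names were converted to IUPAC-condensed notation. The data come from 3228 arrays in the Consortium for Functional Glycomics database, limited to those with an available protein sequence. Binding is reported as a within-array Z-score averaged across arrays of one protein sequence and across linkers.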
# Kdn(a2-3)Gal(b1-4)GlcNAc = target: Kdn(a2-3)Gal(b1-4)GlcNAc
# How it was run: as §1
# [1] = target: Kdn(a2-3)Gal(b1-4)[Fuc(a1-3)]GlcNAc
# How it was run: as §1
# Kdn(a2-6)Gal(b1-4)GlcNAc = target: Kdn(a2-6)Gal(b1-4)GlcNAc
# How it was run: as §1
# [2] = target: Man(a1-2)Man(a1-2)Man(a1-3)Man
# How it was run: as §1
# [3] = target: Man(a1-2)Man(a1-2)Man(a1-6)[Man(a1-3)]Man
# How it was run: as §1
# Man(a1-2)Man(a1-3)Man = target: Man(a1-2)Man(a1-3)Man
# How it was run: as §1
# [4] = target: Man(a1-2)Man(a1-3)[Man(a1-2)Man(a1-6)]Man
# How it was run: as §1
# [5] = target: Man(a1-2)Man(a1-3)[Man(a1-2)Man(a1-6)]Man(a1-6)[Man(a1-2)Man(a1-2)Man(a1-3)]Man
# How it was run: as §1
# [6] = target: Man(a1-2)Man(a1-3)[Man(a1-2)Man(a1-6)]Man(a1-6)[Man(a1-2)Man(a1-2)Man(a1-3)]Man(b1-4)GlcNAc(b1-4)GlcNAc
# How it was run: as §1
# [7] = target: Man(a1-2)Man(a1-3)[Man(a1-6)]Man(a1-6)[Man(a1-2)Man(a1-3)]Man(b1-4)GlcNAc(b1-4)GlcNAc
# How it was run: as §1
# [8] = target: Man(a1-2)Man(a1-6)[Man(a1-3)]Man(a1-6)[Man(a1-2)Man(a1-2)Man(a1-3)]Man
# How it was run: as §1
# [9] = target: Man(a1-2)Man(a1-6)[Man(a1-3)]Man(a1-6)[Man(a1-2)Man(a1-2)Man(a1-3)]Man(b1-4)GlcNAc(b1-4)GlcNAc
# How it was run: as §1
# Man(a1-3)[Man(a1-6)]Man = target: Man(a1-3)[Man(a1-6)]Man
# How it was run: as §1
# [10] = target: Man(a1-3)[Man(a1-6)]Man(a1-6)[Man(a1-2)Man(a1-3)]Man(b1-4)GlcNAc(b1-4)GlcNAc
# How it was run: as §1
# [11] = target: Man(a1-3)[Man(a1-6)]Man(a1-6)[Man(a1-3)]Man
# How it was run: as §1
# [12] = target: Man(a1-3)[Man(a1-6)]Man(a1-6)[Man(a1-3)]Man(b1-4)GlcNAc(b1-4)GlcNAc
# How it was run: as §1
# [13] = target: Man(a1-3)[Man(a1-6)]Man(b1-4)GlcNAc(b1-4)GlcNAc
# How it was run: as §1
# [14] = target: Man(a1-3)[Man(a1-6)]Man(b1-4)GlcNAc(b1-4)[Fuc(a1-6)]GlcNAc
# How it was run: as §1
# Man(a1-6)Man = target: Man(a1-6)Man
# How it was run: as §1
# Man(b1-4)GlcNAc = target: Man(b1-4)GlcNAc
# How it was run: as §1
# MurNAc(b1-4)GlcNAc = target: MurNAc(b1-4)GlcNAc
# How it was run: as §1
# Neu5Ac(a2-3)Gal = target: Neu5Ac(a2-3)Gal
# How it was run: as §1
# [15] = target: Neu5Ac(a2-3)Gal(b1-3)GalNAc
# How it was run: as §1
# [16] = target: Neu5Ac(a2-3)Gal(b1-3)GalNAc(b1-3)Gal(a1-4)Gal(b1-4)Glc
# How it was run: as §1
# [17] = target: Neu5Ac(a2-3)Gal(b1-3)GalNAc(b1-4)[Neu5Ac(a2-3)]Gal(b1-4)Glc
# How it was run: as §1
# [18] = target: Neu5Ac(a2-3)Gal(b1-3)GalNAc(b1-4)[Neu5Ac(a2-8)Neu5Ac(a2-3)]Gal(b1-4)Glc
# How it was run: as §1
# [19] = target: Neu5Ac(a2-3)Gal(b1-3)GalNAc6S
# How it was run: as §1
# [20] = target: Neu5Ac(a2-3)Gal(b1-3)GlcNAc
# How it was run: as §1
# [21] = target: Neu5Ac(a2-3)Gal(b1-3)GlcNAc(b1-2)Man
# How it was run: as §1
# [22] = target: Neu5Ac(a2-3)Gal(b1-3)GlcNAc(b1-2)Man(a1-3)[GlcNAc(b1-4)][Neu5Ac(a2-3)Gal(b1-3)GlcNAc(b1-2)Man(a1-6)]Man(b1-4)GlcNAc(b1-4)GlcNAc
# How it was run: as §1
# [23] = target: Neu5Ac(a2-3)Gal(b1-3)GlcNAc(b1-2)Man(a1-3)[Neu5Ac(a2-3)Gal(b1-3)GlcNAc(b1-2)Man(a1-6)]Man(b1-4)GlcNAc(b1-4)GlcNAc
# How it was run: as §1
# [24] = target: Neu5Ac(a2-3)Gal(b1-3)GlcNAc(b1-3)Gal(b1-3)GlcNAc
# How it was run: as §1
# [25] = target: Neu5Ac(a2-3)Gal(b1-3)GlcNAc(b1-3)Gal(b1-4)GlcNAc
# How it was run: as §1
# [26] = target: Neu5Ac(a2-3)Gal(b1-3)GlcNAc(b1-3)GalNAc
# How it was run: as §1
# [27] = target: Neu5Ac(a2-3)Gal(b1-3)GlcNAc(b1-4)Gal(b1-4)Glc
# How it was run: as §1
# [28] = target: Neu5Ac(a2-3)Gal(b1-3)GlcNAc(b1-6)GalNAc
# How it was run: as §1
# [29] = target: Neu5Ac(a2-3)Gal(b1-3)GlcNAc6S
# How it was run: as §1
binder,measurement,setting,value
GS7807E-bfa-538-23-538 (Bacteroides fragilis) (protein) TDSFESFNTNEAGFDNDSKKQDFNYYGIPLGIIQQGIYFNYDWGSGKNWPFQTMQNLGADLFSGYVHDFNPFNEGKNNSTYYMMDGWNGSTWDNTYGYIMPEVQKSETINEKDNIGFFGITKILKVELMHRLSDLYGPIVYTQFGSKTGSTPDTQQEAYKAFFNDLDTGIAKIREYQKANPDIESFAKFDILMPQGKRTFSEWIRFANSLRLRLAVRIAMADSKLAVAEAQKALTDEEGLLEGNDEVVAVSTSSGYTNPFGEINKAWGEVFMNANMESLLVGYEDPRMEKYFDKATGSDATSLIDYKGTYKGIRQGTGFSHKNYNGHSKSTITQQTDAVLMTPAEVWFLRAEAALRGWSSESVKDCYEKGVKASFAQWGAAGAEAYLESDRKPSDYVDAFKAANNVKAVNTLTPKWDDAAGNEDKLGRIITQKWLAMFPEGGEAWAEQRRTGYPRLFPVLVNQSEGTVDTNLGPRRLNFFVGIKTTNPEQYTQLVNALGGIDNCGTRLWWDTGRNF,glycan array binding signal (z-score),Kdn(a2-3)Gal(b1-4)Glc,-0.064
same,glycan array binding signal (z-score),Kdn(a2-3)Gal(b1-4)GlcNAc,-0.276
same,glycan array binding signal (z-score),[1],0.59
same,glycan array binding signal (z-score),Kdn(a2-6)Gal(b1-4)GlcNAc,-0.638
same,glycan array binding signal (z-score),[2],-0.684
same,glycan array binding signal (z-score),[3],-0.683
same,glycan array binding signal (z-score),Man(a1-2)Man(a1-3)Man,-0.657
same,glycan array binding signal (z-score),[4],-0.699
same,glycan array binding signal (z-score),[5],-0.657
same,glycan array binding signal (z-score),[6],0.743
same,glycan array binding signal (z-score),[7],-0.615
same,glycan array binding signal (z-score),[8],-0.621
same,glycan array binding signal (z-score),[9],0.304
same,glycan array binding signal (z-score),Man(a1-3)[Man(a1-6)]Man,-0.621
same,glycan array binding signal (z-score),[10],-0.332
same,glycan array binding signal (z-score),[11],-0.651
same,glycan array binding signal (z-score),[12],3.45
same,glycan array binding signal (z-score),[13],-0.656
same,glycan array binding signal (z-score),[14],-0.624
same,glycan array binding signal (z-score),Man(a1-6)Man,-0.587
same,glycan array binding signal (z-score),Man(b1-4)GlcNAc,-0.611
same,glycan array binding signal (z-score),MurNAc(b1-4)GlcNAc,-0.66
same,glycan array binding signal (z-score),Neu5Ac(a2-3)Gal,-0.641
same,glycan array binding signal (z-score),[15],-0.634
same,glycan array binding signal (z-score),[16],-0.298
same,glycan array binding signal (z-score),[17],-0.353
same,glycan array binding signal (z-score),[18],-0.27
same,glycan array binding signal (z-score),[19],-0.669
same,glycan array binding signal (z-score),[20],-0.613
same,glycan array binding signal (z-score),[21],0.319
same,glycan array binding signal (z-score),[22],0.435
same,glycan array binding signal (z-score),[23],-0.521
same,glycan array binding signal (z-score),[24],-0.707
same,glycan array binding signal (z-score),[25],-0.676
same,glycan array binding signal (z-score),[26],-0.673
same,glycan array binding signal (z-score),[27],-0.531
same,glycan array binding signal (z-score),[28],-0.277
same,glycan array binding signal (z-score),[29],-0.64
